Assay results: the supplement of paper PMC4967469
The IC50 comes from the fitted curve, where viability falls to half of the control; where the fit passes the top or lowest dose, that dose stands as a limit. AUC, from the same fit, is the share of area under the viability curve across the 256-fold dose range; it is 1 without any effect and falls as sensitivity rises. An inferred top dose is not printed in the source and was worked back from the curve model.

Assays:
Test in all cases: Viability of human cancer cell lines after 72 h of drug (GDSC screen)
Tipifarnib = compound: Cn1cncc1[C@@](N)(c1ccc(Cl)cc1)c1ccc2c(c1)c(-c1cccc(Cl)c1)cc(=O)n2C [Tipifarnib]; conditions: top dose 16 µM; top dose inferred
Experimental: (§1)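 Human cancer cell lines in 384-well plates, medium with 10% serum, drug for 72 h over a 256-fold dose range (nine 2-fold or five 4-fold steps up to the top dose). Adherent lines were fixed and stained with the nucleic acid dye Syto60, suspension lines read with resazurin; signal relative to control wells, capped at 0 and 100%. One two-parameter sigmoid per drug and line, fitted in a mixed model over all curves with the slope shared within a line.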

NG-25 = compound: CCN1CCN(Cc2ccc(NC(=O)c3ccc(C)c(Oc4ccnc5[nH]ccc45)c3)cc2C(F)(F)F)CC1 [NG-25]; conditions: top dose 10.24 µM; top dose inferred
Experimental: as §1

GSK-1904529A = compound: CCc1cc(Nc2nccc(-c3c(-c4ccc(OC)c(C(=O)Nc5c(F)cccc5F)c4)nc4ccccn34)n2)c(OC)cc1N1CCC(N2CCN(S(C)(=O)=O)CC2)CC1 [GSK-1904529A]; conditions: top dose 1.024 µM; top dose inferred
Experimental: as §1

PFI-1 = compound: COc1ccccc1S(=O)(=O)Nc1ccc2c(c1)CN(C)C(=O)N2 [PFI-1]; conditions: top dose 10 µM; top dose inferred
Experimental: as §1

Cell Line	AUC (Tipifarnib)	IC50 (Tipifarnib)	AUC (NG-25)	IC50 (NG-25)	AUC (GSK-1904529A)	IC50 (GSK-1904529A)	AUC (PFI-1)	IC50 (PFI-1)
HuO-3N1 (osteosarcoma, adherent)	0.697	4.32 µM	0.977	> 10.2 µM	0.963	> 1.02 µM	0.897	> 10 µM
CAL-62 (thyroid, adherent)	0.573	1.57 µM	0.876	9.3 µM	0.979	> 1.02 µM	0.686	2.02 µM
CAKI-1 (kidney, adherent)	0.853	> 16 µM	0.831	> 10.2 µM	0.925	> 1.02 µM	0.778	6.35 µM
LN-18 (glioma, adherent)	0.834	7.73 µM	0.955	> 10.2 µM	0.988	> 1.02 µM	0.935	> 10 µM
T84 (large intestine, adherent)	0.405		0.954	> 10.2 µM	0.987	> 1.02 µM	0.987	> 10 µM
KU-19-19 (bladder, adherent)	0.874	15.6 µM	0.987	> 10.2 µM	0.984	> 1.02 µM	0.71	2.45 µM
MOG-G-UVW (glioma, adherent)	0.81	8.11 µM	0.958	> 10.2 µM	0.98	> 1.02 µM	0.795	4.52 µM
MS751 (cervix, adherent)	0.77	5.64 µM	0.981	> 10.2 µM	0.98	> 1.02 µM	0.828	5.51 µM
MDA-MB-415 (breast, adherent)	0.702	4.53 µM	0.98	> 10.2 µM	0.962	> 1.02 µM	0.918	> 10 µM
KYSE-510 (oesophagus, adherent)	0.523	1.14 µM	0.974	> 10.2 µM	0.951	> 1.02 µM	0.947	> 10 µM
PE/CA-PJ15 (head and neck, adherent)	0.965	> 16 µM	0.954	> 10.2 µM	0.985	> 1.02 µM	0.859	9.38 µM
COLO-792 (melanoma, adherent)	0.773	6.15 µM	0.988	> 10.2 µM	0.921	> 1.02 µM	0.775	3.89 µM
CHSA0108 (chondrosarcoma, adherent)	0.849	15.1 µM	0.84	8.7 µM	0.97	> 1.02 µM	0.805	6.02 µM
NCI-H2085 (lung adenocarcinoma, adherent)	0.754	5.79 µM	0.882	> 10.2 µM	0.946	> 1.02 µM	0.94	> 10 µM
NCI-H2342 (lung adenocarcinoma, adherent)	0.396	0.501 µM	0.962	> 10.2 µM	0.879	> 1.02 µM	0.959	> 10 µM
MFE-280 (endometrium, adherent)	0.923	> 16 µM	0.646	1.82 µM	0.981	> 1.02 µM	0.961	> 10 µM
AU565 (breast, adherent)	0.574	1.63 µM	0.904	> 10.2 µM	0.907	> 1.02 µM	0.916	> 10 µM
Calu-3 (lung adenocarcinoma, adherent)	0.642	2.74 µM	0.983	> 10.2 µM	0.979	> 1.02 µM	0.772	4.89 µM
NCI-H2172 (non-small cell lung carcinoma, adherent)	0.78	9.15 µM	0.859	> 10.2 µM	0.941	> 1.02 µM	0.963	> 10 µM
22RV1 (prostate, adherent)	0.656	3.01 µM	0.885	> 10.2 µM	0.98	> 1.02 µM	0.842	9.72 µM
SK-N-SH (neuroblastoma, adherent)	0.268	0.22 µM	0.895	> 10.2 µM	0.983	> 1.02 µM	0.902	> 10 µM
NCI-H838 (lung adenocarcinoma, adherent)	0.855	13.6 µM	0.856	8.81 µM	0.971	> 1.02 µM	0.874	> 10 µM
HCC202 (breast, adherent)	0.607	2.21 µM	0.802	7.63 µM	0.952	> 1.02 µM	0.957	> 10 µM
GMS-10 (glioma, adherent)	0.871	14.8 µM	0.982	> 10.2 µM	0.988	> 1.02 µM	0.84	6.82 µM
VMRC-RCZ (kidney, adherent)	0.617	2.21 µM	0.855	> 10.2 µM	0.982	> 1.02 µM	0.955	> 10 µM

Cell Line	AUC (Tipifarnib)	IC50 (Tipifarnib)	AUC (NG-25)	IC50 (NG-25)	AUC (GSK-1904529A)	IC50 (GSK-1904529A)	AUC (PFI-1)	IC50 (PFI-1)
A204 (rhabdomyosarcoma, adherent)	0.653	3.03 µM	0.611	1.42 µM	0.94	> 1.02 µM	0.739	3.75 µM
NY (osteosarcoma, adherent)	0.668	2.92 µM	0.989	> 10.2 µM	0.983	> 1.02 µM	0.894	> 10 µM
MCF7 (breast, adherent)	0.258	0.196 µM	0.979	> 10.2 µM	0.978	> 1.02 µM	0.824	6.24 µM
ESS-1 (endometrium, adherent)	0.776	5.74 µM	0.99	> 10.2 µM	0.984	> 1.02 µM	0.926	> 10 µM
WM-115 (melanoma, adherent)	0.965	> 16 µM	0.869	> 10.2 µM	0.957	> 1.02 µM	0.905	> 10 µM
HMV-II (melanoma, adherent)	0.31	0.258 µM	0.777	5.09 µM	0.968	> 1.02 µM	0.853	> 10 µM
HT-115 (large intestine, adherent)	0.983	> 16 µM	0.987	> 10.2 µM	0.991	> 1.02 µM	0.944	> 10 µM
HuP-T3 (pancreas, adherent)	0.756	6.58 µM	0.959	> 10.2 µM	0.973	> 1.02 µM	0.799	6.07 µM
H2803 (mesothelioma, adherent)	0.78	7.72 µM	0.798	5.82 µM	0.972	> 1.02 µM	0.891	> 10 µM
BICR78 (head and neck, adherent)	0.763	6.63 µM	0.964	> 10.2 µM	0.754	0.395 µM	0.727	3.1 µM
NCI-H2347 (lung adenocarcinoma, adherent)	0.735	5.52 µM	0.927	> 10.2 µM	0.971	> 1.02 µM	0.827	7.93 µM
Mewo (melanoma, adherent)	0.613	2.18 µM	0.977	> 10.2 µM	0.974	> 1.02 µM	0.865	> 10 µM
HEC-1 (endometrium, adherent)	0.816	8.45 µM	0.987	> 10.2 µM	0.98	> 1.02 µM	0.908	> 10 µM
TYK-nu (ovary, adherent)	0.845	12.8 µM	0.968	> 10.2 µM	0.944	> 1.02 µM	0.866	> 10 µM
HuCCT1 (biliary tract, adherent)	0.646	2.67 µM	0.832	7.64 µM	0.971	> 1.02 µM	0.823	6.78 µM
NCI-H1944 (lung adenocarcinoma, adherent)	0.617	2.14 µM	0.855	9.01 µM	0.936	> 1.02 µM	0.789	4.75 µM
HCC1937 (breast, adherent)	0.743	5.6 µM	0.965	> 10.2 µM	0.982	> 1.02 µM	0.928	> 10 µM
SW1710 (bladder, adherent)	0.44	0.681 µM	0.791	4.78 µM	0.956	> 1.02 µM	0.819	5.9 µM
PANC-04-03 (pancreas, adherent)	0.698	5.12 µM	0.947	> 10.2 µM	0.957	> 1.02 µM	0.875	> 10 µM
OAW-28 (ovary, adherent)	0.855	> 16 µM	0.849	> 10.2 µM	0.963	> 1.02 µM	0.861	> 10 µM
JIMT-1 (breast, adherent)	0.406	0.542 µM	0.885	> 10.2 µM	0.958	> 1.02 µM	0.874	> 10 µM
PL4 (pancreas, adherent)	0.785	7.11 µM	0.908	> 10.2 µM	0.987	> 1.02 µM	0.913	> 10 µM
H2818 (mesothelioma, adherent)	0.9	> 16 µM	0.985	> 10.2 µM	0.988	> 1.02 µM	0.947	> 10 µM
T-24 (bladder, adherent)	0.747	4.9 µM	0.949	> 10.2 µM	0.984	> 1.02 µM	0.844	6.66 µM
